Among all 360,000 compounds or so, about 6,000 (1.7%) were called active. Inconclusive means that the source gave no clear call. Such entries were picked first, then a sample of the others. The call rests on the fitted dose curve; in most records, active means well fitted cell-killing curve with a large enough effect; inconclusive means small, poorly fitted or top-dose-only effect, or effect the other way; inactive means flat fitted curve, though single readings scatter. Potencies of inconclusive entries are left out as doubtful fits.
assay: qHTS for induction of synthetic lethality in tumor cells producing 2HG: qHTS for the HT-1080-NT fibrosarcoma cell line; conditions: HT-1080-NT fibrosarcoma viability, CellTiter-Glo ATP luminescence, 48 h; activity, negative = less viability: at 46.1 µM (top of the series) unless noted;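 further: NT is the 2HG producing partner of a matched IDH1 knockdown line; nearly all actives have a fitted effect of over 55% in size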;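 on activity, negative = less viability: 0% = DMSO-treated cells and -100% = media-only wells without cells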
Outline: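 Luminescent CellTiter-Glo readout after 48 hours of compound exposure at 37 degrees C defined viability of HT-1080-NT cells. Activity was normalized to DMSO wells and cell-free media wells; concentration-response curves were fitted and assigned curve classes.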
Potency means the concentration at half of the fitted maximal effect; tags describe the fitted curve by direction and shape.

SMILES	activity, negative = less viability	Potency
Cc1ccc(NC(=O)COc2ccccc2)cc1S(=O)(=O)N1CCCCC1	inactive: 5.07%	
O=C(NNC(=S)NC(=O)c1ccc(Br)cc1)c1cccc([N+](=O)[O-])c1		inconclusive [cytotoxic, single point]
COc1ccc(-c2nc3cc(NC(=O)Cc4ccc(OC)c(OC)c4)ccc3o2)cc1	inactive: -7.45%	
CS(=O)(=O)n1nc(OC(=O)c2cc(Br)ccc2Cl)cc1N	inactive: 1.94%	
COc1ccc(/C=C/C(=O)c2ccccc2)cc1Cn1nnc2ccccc21		inconclusive [cytotoxic, single point]
O=C(COC(=O)CNC(=O)c1ccco1)NCc1ccc(F)cc1	inactive: 6.82%	
CCCCC(=O)Nc1ccc(C(=O)N(CC)c2ccccc2C)cc1		inconclusive [cytotoxic, single point]
CCN1C(=O)C2(Nc3ccccc3-c3nc4ccccc4n32)c2cc(OC)ccc21 (centres undefined)	inactive: -8.46%	
O=C(CCCN1C(=O)/C(=C/c2ccccc2Cl)SC1=S)NNC(=O)c1ccccc1Cl		inconclusive [cytotoxic, single point]
O=C(NCc1ccco1)c1ccc(Cn2c(=O)c3sccc3n(Cc3ccc(F)cc3)c2=O)cc1		inconclusive [cytotoxic, single point]
O=C(COC(=O)c1cnccn1)c1cccc([N+](=O)[O-])c1	inactive: 14.2%	
CC(Oc1ccc(Cl)cc1)C(=O)NNC(=S)NC(=O)c1ccco1 (centres undefined)		inconclusive [cytotoxic, single point]
C[C@@H]1CCCCO[C@H](CN(C)Cc2ccc3c(c2)OCO3)[C@H](C)CN([C@@H](C)CO)C(=O)c2cc(NC(=O)c3ccccc3)ccc2O1		inconclusive [cytotoxic, single point]
CCN(CC(=O)Nc1ccc(NC(C)=O)cc1)C(=O)/C=C/c1c(C)nn(-c2ccc(F)cc2)c1Cl	inactive: -4.34%	
CCOC(=O)c1c(C)n(CC(O)c2ccccc2)c2ccc(O)cc12 (centres undefined)	inactive: -20.4%	
CCOC(=O)C1(CCOc2ccccc2)CCN(Cc2ccc(F)c(OC)c2)CC1		inconclusive [cytotoxic, single point]
CCC(Sc1nnnn1-c1ccccc1)C(=O)Nc1nc2ccccc2s1 (centres undefined)		inconclusive [cytotoxic, single point]
O=C(NNc1ccc(Cl)cc1)c1cccs1		active: 4.61 µM
O=c1[nH]c2ccc(NCc3ccccc3OCc3ccc(Cl)cc3)cc2[nH]1		active: 16.4 µM
CCCC(=O)C1=C(O)C(C(=O)OC)C(C)(C)CC1=Nc1cccc2ccccc12 (centres undefined)		inconclusive [cytotoxic, partial curve]
O=C(NNS(=O)(=O)c1ccccc1)c1cnn(-c2ccccc2)c1-n1cccc1		inconclusive [rising, single point]
Cc1ccc(S(=O)(=O)N2CCOCC2)cc1C(=O)Nc1cc(Cl)ccc1N1CCOCC1	inactive: -0.365%	
O=C(Nc1ccc(F)cc1F)N1CCCN(c2ccc([N+](=O)[O-])cn2)CC1	inactive: -1.31%	
Cn1cccc1/C=C(/C#N)C(N)=S	inactive: 13.3%	
CCCn1c(C(O)c2cc(OC)c(OC)c(OC)c2)nc2ccccc21 (centres undefined)	inactive: -0.391%	

SMILES	activity, negative = less viability	Potency
CCc1nc2ccc(C(=O)N3CCN(S(=O)(=O)CC)CC3)cn2c1N(CC)CCN(C)C	inactive: 25.9%	
CC1(C)Cc2c(c(-c3ccccc3Cl)[nH]c(=O)c2C#N)CO1	inactive: -2.57%	
CC(=O)NCCc1nc2cc(NC(=O)COc3cccc(C)c3)ccc2n1C		inconclusive [rising, partial curve]
Cc1sc2nc(SCC(=O)N3CCCCC3)[nH]c(=O)c2c1C	inactive: -4.95%	
N#CC(C#N)=C1C=CC=CN1/C(=C\c1ccco1)C(=O)c1ccccc1		inconclusive [cytotoxic, full curve]
O=C(CN1C(=O)C(=O)N(Cc2ccccc2)C1=O)Nc1ccc(F)c(Cl)c1	inactive: -17.4%	
N#C/C(=C\c1ccccn1)c1nc2ccccc2s1		inconclusive [cytotoxic, single point]
C=CC[n+]1ccc2ccccc2c1C	inactive: 6.13%	
O=C(NC1c2ccccc2Oc2ccccc21)c1ccc([N+](=O)[O-])cc1	inactive: -0.0542%	
CN(Cc1ccccc1)c1nc(N)nc(Cl)c1C=O		inconclusive [cytotoxic, single point]
N#CCC1c2ccccc2CCN1C(=O)Nc1ccc(C(F)(F)F)cc1 (centres undefined)		inconclusive [cytotoxic, single point]
Cc1nnc(SCC(=O)N/N=C/c2ccc(-c3ccc(C)c(Cl)c3)o2)s1		inconclusive [cytotoxic, single point]
CC(=O)Nc1ccccc1C(=O)C(=O)Nc1cccc(Br)c1	inactive: -24.3%	
O=C(O)Cc1c(C(=O)O)nnn1-c1ccc(Cl)cc1Cl	inactive: 7.9%	
Clc1ccc(Cn2ccc3ccccc32)cn1		inconclusive [cytotoxic, partial curve]
CN(C)CCCNc1nc2cc(-c3ccccc3)sc2c(=O)n1C		active: 9.2 µM
CC(=O)Oc1ccccc1Cn1c(C)c(C(=O)NCc2ccccc2C(F)(F)F)sc1=O		inconclusive [cytotoxic, single point]
C=CCN(C(=O)Nc1ccc(Cl)cc1)C1CC(=O)N(c2ccc(OC)cc2)C1=O (centres undefined)	inactive: -19.9%	
COCCN=C1N[C@@H](c2ccccc2)C(C(=O)OC)=C(C)N1Cc1ccccc1	inactive: 1.79%	
Cn1c(=O)c2cc(NC(=O)CCc3ccc(O)cc3)ccc2n1Cc1cccc(C(F)(F)F)c1	inconclusive: -9.47% [cytotoxic]	
COc1cccc(N=c2oc3ccccc3cc2-c2nc3ccccc3[nH]2)c1		inconclusive [cytotoxic, partial curve]
Cc1cc(-n2ccnc2)n2c(nc3ccccc32)c1C#N		inconclusive [cytotoxic, single point]
CCOc1ccc(NCc2ccccc2OCc2cccc(F)c2)cc1		inconclusive [cytotoxic, single point]
Cc1cccc(C2NC(=O)c3ccccc3N2)c1 (centres undefined)		inconclusive [cytotoxic, single point]
